In PubChem BioAssay AID1030 (National Center for Advancing Translational Sciences (NCATS), 2008):
Hit rate of the full screen: of about 220,000 compounds, about 16,000 (7.3%) were called active. This list was built around the results that the source calls inconclusive (neither active nor inactive); the mix of calls is not that of the screen. Calls follow the shape of the dose curve; as a rule, active = well fitted inhibition curve with a large enough effect (not every such curve was filed as active); inconclusive = small, poorly fitted or top-dose-only effect, or another doubt; inactive = no such curve, though single readings can be large or run the other way. Where the call is inconclusive, the potency comes from a doubtful curve fit.

These compounds were tested against Aldehyde dehydrogenase 1A1 (Homo sapiens) (UniProt P00352) (assay: qHTS Assay for Inhibitors of Aldehyde Dehydrogenase 1 (ALDH1A1)). Conditions: Purified ALDH1A1, NADH fluorescence, propionaldehyde substrate; series mostly up to 75.3 µM.
Sequence of UniProt P00352 (P00352 whole entry, looked up): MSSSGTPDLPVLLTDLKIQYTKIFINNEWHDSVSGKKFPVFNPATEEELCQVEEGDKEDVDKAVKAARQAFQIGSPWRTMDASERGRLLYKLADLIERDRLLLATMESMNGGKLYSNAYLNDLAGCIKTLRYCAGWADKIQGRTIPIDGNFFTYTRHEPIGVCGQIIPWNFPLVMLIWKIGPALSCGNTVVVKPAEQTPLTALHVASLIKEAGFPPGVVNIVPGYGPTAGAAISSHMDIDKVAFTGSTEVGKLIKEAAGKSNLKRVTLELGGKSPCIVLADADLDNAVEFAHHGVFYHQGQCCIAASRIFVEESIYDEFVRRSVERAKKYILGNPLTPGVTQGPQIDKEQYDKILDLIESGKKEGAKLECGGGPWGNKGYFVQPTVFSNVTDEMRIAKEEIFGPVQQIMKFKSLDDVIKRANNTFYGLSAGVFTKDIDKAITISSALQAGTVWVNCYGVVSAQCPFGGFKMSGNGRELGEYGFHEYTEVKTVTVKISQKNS

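For activity, negative = inhibition in this document: plate controls were no enzyme wells and a reference inhibitor.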
Potency is read from the fitted curve at half-maximal effect; tags tell the direction and shape of the fitted curve.

Potency, active:
CCOC(=O)CCSc1n[nH]c(=S)s1 1.78 µM
COc1ccc2[nH]c(C)c(CCN(Cc3cccs3)C(=S)Nc3ccc(F)cc3)c2c1 17.8 µM
COCCn1nnnc1C(c1ccc(OC)cc1OC)N1CCN(c2ccccc2)CC1 (stereo unspecified) 7.94 µM
CCOc1ccc(NC(=S)/C(=C(\[O-])c2ccc(C)c([N+](=O)[O-])c2)[n+]2ccccc2)cc1 11.2 µM
CCOc1ccc(Br)cc1S(=O)(=O)Nc1nc(CN2CCOCC2)nc2sc(C)c(C)c12 12.6 µM
Cc1ccc(/C([O-])=C(/C(=S)NCCN2CCOCC2)[n+]2ccccc2)cc1[N+](=O)[O-] 22.4 µM
O=C(NC(=S)Nc1ccc(C(=O)N2CCOCC2)cc1)c1ccc([N+](=O)[O-])cc1 10 µM
Cn1c(-c2ccc(Cl)cc2)cnc1NCc1cc2c(cc1[N+](=O)[O-])OCO2 14.1 µM
CC(C)(C)Cc1nnc(NC(=O)CN2C(=O)c3ccccc3C2=O)s1 22.4 µM
CSc1nc(N2CCOCC2)c2c(c1C#N)CCCCC2 22.4 µM
CCOc1cccc(-c2nnc3n2N=C(c2cc(OC)ccc2OC)CS3)c1 28.2 µM
Cc1noc(C)c1CSc1nc2[nH]ncc2c(=O)n1-c1ccccc1 1.26 µM
O=C(CSc1nc2ccc(Cl)cc2[nH]1)N1CCN(C(=O)c2ccco2)CC1 22.4 µM
CCCn1c(SCC(=O)N2c3ccccc3CCc3ccccc32)nc2c1c(=O)n(C)c(=O)n2C 11.2 µM
COc1ccc(C(=O)NCc2nnc(SCC(=O)N3CCc4ccccc43)n2CCc2ccccc2)cc1 0.631 µM
CC(=O)O[C@@H]1[C@@]2(C)O[C@H]2CC[C@]23O[C@H]2[C@H](OC3=O)C2=C(C)C(=O)O[C@@]21O 28.2 µM

Potency, inactive:
Cc1ccc(NC(=O)COC(=O)c2ccn(C)n2)cc1
CCC(C(=O)OC)n1cnc2c(nnn2-c2cccc(Cl)c2)c1=O (stereo unspecified)
CCCCCCOC1(c2ccccc2)OC(=O)c2ccccc21 (stereo unspecified)
CC(=O)c1c(C)[nH]c(-c2ccccc2)nc1=S
COc1ccc(Oc2ncc3nc(-c4ccc(Cl)cc4)c(=O)n(C)c3n2)cc1
COc1ccc(C(=O)N/N=C/c2ccc(OC(=O)c3cccc4ccccc34)c([N+](=O)[O-])c2)cc1
CN(C)CCCNCCCNC(=O)/C=N/O
CCOC(=O)c1cc([N+](=O)[O-])sc1N
N[C@H](CCC(=O)N[C@H](CSN=O)C(=O)NCC(=O)O)C(=O)O
CCOC(=O)c1ccc(NC(=O)c2cn(CCC#N)nc2-c2ccc3c(c2)OCCO3)cc1
Cc1ccc2c(c1)C1C3CCC(C3)C1S(=O)N2 (stereo unspecified)
COc1ccc(CNC(=O)c2cnn3c(C(F)F)cc(C)nc23)cc1OC
COc1cc(/C=C(\C#N)C(=O)NCCc2ccccc2)cc(OC)c1O
CC(Cn1nnc2ccccc21)C(=O)O (stereo unspecified)
Cc1ccc(C(CC(=O)NCc2ccco2)c2ccccc2)c(O)c1 (stereo unspecified)
COc1ccc(NC(=O)/C(=C\c2ccc3c(c2)OCO3)NC(C)=O)cc1
CC(C)Cn1c(N)c(C(=O)COC(=O)c2cc(F)cc(F)c2)c(=O)n(C)c1=O
CN(C)c1ccc(/C=N/OC(=O)Nc2ccccc2Cl)cc1
COc1ccc(C(=O)NCc2ccc3c(c2)OCO3)cc1
Fc1ccc(CNC(=S)NC2CCCCC2)cc1
Cc1oc(C(=O)O)cc1COc1cccc2cccnc12
C=CCNC(=S)Nc1cccc2[nH]ncc12
O=c1oc2cc(O)ccc2s1

Potency, inconclusive:
C=CCNC(=O)CSc1nnc(-c2ccccc2Br)n1-c1cccc(C(F)(F)F)c1 15.8 µM [inhibitor, partial curve]
CC(C)(C)CC(=O)Nc1cccc(-c2cn3cccnc3n2)c1 31.6 µM [inhibitor, partial curve]
CCc1ccc(CNC(=O)C2CCC(=O)N2C2CCCCC2)cc1 (stereo unspecified) 39.8 µM [inhibitor, single point]
CCOC(=O)N1CCN(CC(=O)c2c[nH]c3ccc(F)cc23)CC1 31.6 µM [inhibitor, single point]
Cc1ccc(C(=O)NCC(=O)OCC(=O)N2CCCc3ccccc32)cc1 25.1 µM [inhibitor, single point]
CCN(CC)S(=O)(=O)c1cccc(NC(=O)c2ccc(Br)cc2)c1 22.4 µM [inhibitor, partial curve]
O=C(Nc1nnc(CCS(=O)(=O)c2ccc3ccccc3c2)s1)c1cccs1 35.5 µM [inhibitor, single point]
CC(=O)NC1C(=O)N=C(SCC(=O)Nc2ccc(C(F)(F)F)cc2Cl)NC1=O (stereo unspecified) 39.8 µM [inhibitor, single point]
Cc1ccc(C(=O)Nc2sc(Cc3ccc4c(c3)OCO4)c(C)c2C(N)=O)cc1 31.6 µM [inhibitor, partial curve]
Cc1ccc(C)c(NC(=O)Cn2nnc(-c3ccc(N4CCOCC4)cc3)n2)c1 39.8 µM [inhibitor, single point]
CCc1cc2c(=O)[nH]c(-c3ccccn3)nc2s1 15.8 µM [inhibitor, partial curve]
Cc1cc(C(=O)N/N=C/c2ccc(-c3ccc(C)c(Cl)c3)o2)n[nH]1 28.2 µM [inhibitor, partial curve]
CCn1nccc1C(=O)Nc1cc(Cl)cc(Cl)c1 39.8 µM [inhibitor, single point]
Cc1nc2ccc(S(=O)(=O)N(C)CC(=O)N3CCc4ccccc4C3)cc2s1 14.1 µM [inhibitor, single point]
Cc1sc2ncnc(-n3nnc4ccccc43)c2c1C 39.8 µM [inhibitor, single point]
O=C(CCCn1c(=O)oc2ccccc21)N1CCc2ccccc2C1 31.6 µM [inhibitor, single point]
CC(=O)Oc1cc(-c2coc3cc(OC(C)=O)c(OC(C)=O)c(OC(C)=O)c3c2=O)cc(OC(C)=O)c1OC(C)=O 28.2 µM [inhibitor, single point]
COc1ccc(-c2nc3cnc(N4CCOCC4)nc3n(C3CC3)c2=O)cc1 18.9 µM [inhibitor, partial curve]
Cc1c(/C(O)=C2/C(=O)C(=O)N(CCN3CCOCC3)C2c2ccccn2)cnn1-c1ccccc1 (stereo unspecified) 39.8 µM [inhibitor, single point]
CN1CCN(C/C(=C2/N=C(c3ccccc3)OC2=O)N(C)C)CC1 39.8 µM [inhibitor, single point]
CCOC(=O)CC(=O)CSC1=C(C#N)C(c2ccccc2OC)CC(=O)N1 (stereo unspecified) 39.8 µM [inhibitor, single point]
CC(C)CN(C(=O)c1ccc(=O)n(C)n1)c1nc2ccccc2s1 5.01 µM [inhibitor, partial curve]
COc1ccc(NC(=S)Nc2ccc(C)c(S(=O)(=O)N3CCCCC3)c2)cc1 35.5 µM [inhibitor, single point]
COc1ccc(-c2cc(C(F)(F)F)nc(SCc3cccc(C(=O)O)c3)n2)cc1 39.8 µM [inhibitor, single point]
CC(=O)NCC(=O)N1CCCC(C(=O)c2ccc(Oc3ccccc3)cc2)C1 (stereo unspecified) 25.1 µM [inhibitor, single point]
COC(=O)Cn1c(=O)n(CCc2ccccc2)c(=O)c2c3c(sc21)CCCC3 15.8 µM [inhibitor, partial curve]
CCS(=O)(=O)CCSc1nc(C)cc(C)c1C#N 39.8 µM [inhibitor, single point]
N#Cc1nc(-c2cccs2)oc1NCc1ccc2c(c1)OCO2 28.2 µM [inhibitor, partial curve]
Cc1ccc(C=Nc2cc([N+](=O)[O-])ccc2C)s1 14.1 µM [inhibitor, partial curve]
Cc1ccccc1-c1nc2sc3c(c2c(=O)n1N)CCCC3 39.8 µM [inhibitor, single point]
CCn1c(-c2cc(-c3cc(OC)ccc3OC)nc3ccccc23)n[nH]c1=S 28.2 µM [inhibitor, single point]
CCCn1nc2cc(C(=O)NCCc3cccs3)ccc2c1OCC 35.5 µM [inhibitor, partial curve]
O=C1c2oc3ccc(F)cc3c(=O)c2C(c2ccccc2)N1CC1CCCO1 (stereo unspecified) 8.91 µM [inhibitor, partial curve]
O=C(COc1ccccc1)Nc1ccc(-c2nnc(-c3ccco3)o2)cc1 39.8 µM [inhibitor, single point]
N#Cc1nc(-c2ccccc2Cl)oc1NCC1CCCO1 (stereo unspecified) 10 µM [inhibitor, partial curve]
Cc1ccc(NC(=O)C(SCC(=O)O)c2ccccc2)cc1C (stereo unspecified) 39.8 µM [inhibitor, single point]

activity, negative = inhibition, inactive:
Nc1nc(N)c(N=Nc2ccc(C(=O)O)c(O)c2)c(N)n1 -7.23% [at 13.5 µM]
